# Inconclusive means that the source gave no clear call. Such entries were picked first, then a sample of the others. For some of these results: Potencies of inconclusive entries are doubtful fits and often do not repeat. Calls of active or inactive are those of the source. Calls follow the shape of the dose curve; as a rule, active = well fitted curve in the direction sought with a large enough effect; inconclusive = small, poorly fitted or top-dose-only effect, or another doubt; inactive = no such curve, though single readings can be large; an effect the other way counts as inactive or inconclusive.
# Columns and labels:
# [1] = qHTS of pediatric cancer cell lines to identify multiple opportunities for drug repurposing: Primary screen for RD cells (AID 1347104); details: RD rhabdomyosarcoma viability, CellTiter-Glo luminescence, 48 h; series mostly up to 46 µM; also: nearly all actives have a fitted effect of over 55% in size
# How it was run: (§1)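 Readout: CellTiter-Glo luminescence, 48 h treatment. Controls DMSO (neutral) and bortezomib 2.3 µM final (positive). Potency and efficacy taken from primary-screen concentration-response curves.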
# [2] = qHTS of pediatric cancer cell lines to identify multiple opportunities for drug repurposing: Primary screen for control Hh wild type fibroblast cells (AID 1347106); details: Hh wild-type fibroblast viability, CellTiter-Glo luminescence, 48 h; series mostly up to 46 µM; also: nearly all actives have a fitted effect of over 55% in size;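 as to activity change, negative = cytotoxic: a drop in luminescence marks cytotoxicity and a rise apparent proliferation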
# How it was run: (§2)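 Cells (500-1,000/well) in growth media were settled 5 h at 37 degrees C, then given compounds for 48 h. Viability was read as CellTiter-Glo luminescence. Primary runs used MIPE at 11 points (0.78 nM-46 µM) and NPC at 8 points (0.59 nM-46 µM); follow-ups used 11 points.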
# [3] = qHTS of pediatric cancer cell lines to identify multiple opportunities for drug repurposing: Primary screen for Rh41 cells (AID 1347108); details: Rh41 rhabdomyosarcoma viability, CellTiter-Glo luminescence, 48 h; series mostly up to 46 µM; also: nearly all actives have a fitted effect of over 70% in size;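 as to activity change, negative = cytotoxic: luminescence drop marks cytotoxic hits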
# How it was run: as §1
# [4] = qHTS of pediatric cancer cell lines to identify multiple opportunities for drug repurposing: Confirmatory screen for A673 cells (AID 1347110); details: A673 Ewing sarcoma cell viability; series mostly up to 45.9 µM;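 also: cells exposed to compound for 48 h before the viability read; nearly all actives have a fitted effect of over 65% in size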
# How it was run: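 Concentration-response curves came straight from titrations: 11 points (0.78 nM to 46 µM) for MIPE and several concentrations (0.59 nM to 46 µM) for NPC in primary, 11 points in follow-up. Readout: ATP luminescence at 48 h.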
# [5] = qHTS of pediatric cancer cell lines to identify multiple opportunities for drug repurposing: Confirmatory screen for SK-N-MC cells (AID 1347111); details: SK-N-MC cell viability; series mostly up to 45.9 µM;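 also: cells exposed to compound for 48 h before the readout; nearly all actives have a fitted effect of over 70% in size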
# How it was run: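 Metabolically active cells were quantified by ATP-dependent luminescence (CellTiter-Glo, 15 min at room temperature) following 48 h treatment. Cells had been plated at 500-1,000 per well and settled for 5 h beforehand.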
# [6] = qHTS of pediatric cancer cell lines to identify multiple opportunities for drug repurposing: Confirmatory screen for BT-12 cells (AID 1347112); details: BT-12 rhabdoid tumor cells, viability; series mostly up to 45.9 µM; also: nearly all actives have a fitted effect of over 55% in size
# How it was run: as §2
# [7] = qHTS of pediatric cancer cell lines to identify multiple opportunities for drug repurposing: Primary screen for MG 63 (6-TG R) cells (AID 1347105); details: MG 63 (6-TG R) viability, CellTiter-Glo, 48 h; activity change, negative = cytotoxic: at 46 µM (top of the series) unless noted; also: nearly all actives have a fitted effect of over 50% in size
# How it was run: as §1
# [8] = qHTS of pediatric cancer cell lines to identify multiple opportunities for drug repurposing: Primary screen for Rh30 cells (AID 1347107); details: Rh30 rhabdomyosarcoma viability, CellTiter-Glo luminescence, 48 h; series mostly up to 46 µM; also: nearly all actives have a fitted effect of over 75% in size
# How it was run: as §2
# [9] = qHTS of pediatric cancer cell lines to identify multiple opportunities for drug repurposing: Confirmatory screen for NB1643 cells (AID 1347109); details: NB1643 neuroblastoma cell viability; activity change, negative = cytotoxic: at 45.9 µM (top of the series) unless noted; also: nearly all actives have a fitted effect of over 45% in size
# How it was run: as §2
# Potency is read from the fitted curve at half-maximal effect; tags tell the direction and shape of the fitted curve.
smiles,measurement,setting,value
CCc1cc(OC)c(C[C@H](C)N)cc1OC,Potency,[1],"inconclusive: 71.2 µM [cytotoxic, single point]"
same,Potency,[2],inactive
same,Potency,[3],"inconclusive: 28.3 µM [cytotoxic, partial curve]"
CN1CCN(c2ccc([N+](=O)[O-])c3no[n+]([O-])c23)CC1,Potency,[1],"inconclusive: 37.2 µM [cytotoxic, single point]"
same,Potency,[3],"inconclusive: 23.5 µM [cytotoxic, partial curve]"
CS(=O)(=O)c1ccc(C(=O)C2C(=O)CCCC2=O)c([N+](=O)[O-])c1,Potency,[1],"inconclusive: 19.7 µM [cytotoxic, partial curve]"
same,Potency,[3],"inconclusive: 0.0099 µM [cytotoxic, full curve]"
same,Potency,[4],inactive
same,Potency,[5],"inconclusive: 68.8 µM [cytotoxic, single point]"
same,Potency,[6],inactive
CCCCCCCCc1ccc(O)cc1,Potency,[7],inactive
CCN1CCN(C(=O)Cc2ccc(Nc3ncc(F)c(Nc4ccc(C(=O)Nc5ccccc5Cl)cc4)n3)cc2)CC1,Potency,[1],active: 13.2 µM
same,Potency,[8],active: 23.5 µM
CCNc1nc(Cl)nc(NCC)n1,Potency,[7],inactive
Clc1ccc(C(OCCN2CCCCC2)c2ccccc2)cc1 (configuration not stated),Potency,[1],"inconclusive: 21.1 µM [cytotoxic, partial curve]"
same,Potency,[3],"inconclusive: 15 µM [cytotoxic, partial curve, poor fit]"
CN1C(=O)CCS(=O)(=O)C1c1ccc(Cl)cc1 (configuration not stated),Potency,[7],inactive
CC(Cc1ccc2c(c1)OCO2)NO (configuration not stated),Potency,[1],inactive
same,Potency,[8],inactive
CCC(=O)C(CC(C)N(C)C)(c1ccccc1)c1ccccc1 (configuration not stated),Potency,[1],"inconclusive: 49 µM [cytotoxic, single point]"
same,Potency,[3],"inconclusive: 24.6 µM [cytotoxic, single point]"
COc1ccc(C(=O)N2CCCC2=O)cc1,Potency,[1],inactive
same,Potency,[9],"inconclusive: 0.0021 µM [rising, full curve]"
same,Potency,[4],inactive
same,Potency,[5],"inconclusive: 36.9 µM [cytotoxic, single point]"
same,Potency,[6],"inconclusive: 36.9 µM [cytotoxic, single point]"
CC(=O)N(C)c1cccc(-c2ccnc3c(C(=O)c4cccs4)cnn23)c1,Potency,[1],inactive
same,Potency,[3],inactive
CC(=O)O[C@@]12CO[C@H]1C[C@H](O)[C@@]1(C)C(=O)[C@H](O)C3=C(C)[C@@H](O)C[C@@](O)([C@@H](OC(=O)c4ccccc4)[C@@H]21)C3(C)C,Potency,[1],"inconclusive: 8.33 µM [cytotoxic, partial curve]"
same,Potency,[3],"inconclusive: 8.33 µM [cytotoxic, partial curve]"
O=S(=O)(CC1CS1)c1ccc(Oc2ccccc2)cc1 (configuration not stated),Potency,[1],"inconclusive: 29.6 µM [cytotoxic, partial curve]"
same,Potency,[8],"inconclusive: 6.62 µM [cytotoxic, partial curve]"
c1ccc2nc(N3CCNCC3)ccc2c1,Potency,[1],inactive
same,Potency,[8],inactive
O=C(O)C(=O)c1cn(Cc2ccccc2)c2ccc(-c3ccc(OC(F)(F)F)cc3)cc12,Potency,[1],"inconclusive: 20.9 µM [cytotoxic, single point]"
same,Potency,[3],"inconclusive: 16.6 µM [cytotoxic, partial curve, poor fit]"
CN1[C@@H]2CC[C@H]1CC(OC(=O)c1cc(Cl)cc(Cl)c1)C2 (some centres not stated),Potency,[1],"inconclusive: 42.2 µM [cytotoxic, partial curve, poor fit]"
same,Potency,[4],inactive
same,Potency,[5],inactive
CC#C[C@]1(O)CC[C@H]2[C@@H]3C[C@H](C)C4=CC(=O)CC[C@]4(C)[C@H]3CC[C@@]21C,Potency,[7],inactive
O=c1[nH]c2ccc(Cl)cc2c(N[C@@H]2CN3CCC2CC3)c1-c1nc2ccccc2[nH]1,Potency,[7],active: 0.235 µM
same,Potency,[2],active: 16.6 µM
same,Potency,[3],active: 14.8 µM
same,Potency,[4],active: 0.261 µM
same,Potency,[5],active: 0.293 µM
same,Potency,[6],active: 13.1 µM
COc1ccc2c3c1O[C@H]1[C@@H](O)C=C[C@H]4[C@@H](C2)N(C)CC[C@@]341,Potency,[7],"inconclusive: 47.6 µM [cytotoxic, partial curve, poor fit]"
same,Potency,[3],"inconclusive: 26.8 µM [cytotoxic, single point]"
CC(C)NCC(O)c1ccccc1Cl (configuration not stated),Potency,[2],inactive
N#C[C@H](O[C@@H]1O[C@H](CO[C@@H]2O[C@H](CO)[C@H](O)[C@H](O)[C@H]2O)[C@H](O)[C@H](O)[C@H]1O)c1ccccc1,Potency,[7],"inconclusive: 29.6 µM [cytotoxic, single point]"
same,Potency,[8],"inconclusive: 14.8 µM [cytotoxic, partial curve]"
same,Potency,[3],"inconclusive: 16.6 µM [cytotoxic, partial curve]"
